These results are taken from PMC3519786, “Novel Interactions between FOXM1 and CDC25A Regulate the Cell Cycle” (PLoS ONE, 2012).

No constants are given. Whether binding was seen depends on the method and setting.

For this test, the target named is T1, GAL4-FOXM1 WHD fragment (amino acids 236-329) (human) (UniProt Q08050).
T1 sequence: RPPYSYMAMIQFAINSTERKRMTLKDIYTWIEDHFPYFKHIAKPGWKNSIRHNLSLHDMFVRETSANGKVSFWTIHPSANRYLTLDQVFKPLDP
Description: two-hybrid; mammalian two-hybrid (Checkmate, Promega) in U2OS; bait pBIND (GAL4 DNA-binding domain)-FOXM1, prey pACT (VP16 activation domain)-CDC25A, reporter pG5-luc; firefly normalised to Renilla luciferase; 2 days.

B1: VP16-CDC25A (natural protein, UniProt P30304 1-524, looked up)
chain: MELGPEPPHRRRLLFACSPPPASQPVVKALFGASAAGGLSPVTNLTVTMDQLQGLGSDYEQPLEVKNNSNLQRMGSSESTDSGFCLDSPGPLDSKENLENPMRRIHSLPQKLLGCSPALKRSHSDSLDHDIFQLIDPDENKENEAFEFKKPVRPVSRGCLHSHGLQEGKDLFTQRQNSAPARMLSSNERDSSEPGNFIPLFTPQSPVTATLSDEDDGFVDLLDGENLKNEEETPSCMASLWTAPLVMRTTNLDNRCKLFDSPSLCSSSTRSVLKRPERSQEESPPGSTKRRKSMSGASPKESTNPEKAHETLHQSLSLASSPKGTIENILDNDPRDLIGDFSKGYLFHTVAGKHQDLKYISPEIMASVLNGKFANLIKEFVIIDCRYPYEYEGGHIKGAVNLHMEEEVEDFLLKKPIVPTDGKRVIVVFHCEFSSERGPRMCRYVRERDRLGNEYPKLHYPELYVLKGGYKEFFMKCQSYCEPPSYRPMHHEDFKEDLKKFRTKSRTWAGEKSKREMYSRLKKL
notes: CDC25A (cell division cycle 25A) dual phosphatase; plasmid bought from Origene; also called pACT-CDC25A; wild-type CDC25A; source: mammalian two-hybrid fusion, U2OS, transfected
Turning to B1, the binding entry was “no binding”.
